According to the supplement of paper PMC4967469:
A lower IC50 marks a more sensitive line; where the fit passes the top or lowest dose, that dose stands as a limit. AUC sums up the same curve from the lowest dose to the 256-fold higher top dose; it is 1 without any effect and falls as sensitivity rises. For part of these data: An inferred top dose was calculated from the reported fits. For part of these data: Where an entry number is given, a second screen of the drug exists; the two often differ.

How the values were obtained:
Experiment in all cases: Viability of human cancer cell lines after 72 h of drug (GDSC screen)
Tamoxifen = compound: CC/C(=C(\c1ccccc1)c1ccc(OCCN(C)C)cc1)c1ccccc1 [Tamoxifen]; conditions: top dose 5 µM
Protocol: (§1)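 Human cancer cell lines in 384-well plates, medium with 10% serum, drug for 72 h over a 256-fold dose range (nine 2-fold or five 4-fold steps up to the top dose). Adherent lines were fixed and stained with the nucleic acid dye Syto60, suspension lines read with resazurin; signal relative to control wells, capped at 0 and 100%. One two-parameter sigmoid per drug and line, fitted in a mixed model over all curves with the slope shared within a line.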

Masitinib = compound: Cc1ccc(NC(=O)c2ccc(CN3CCN(C)CC3)cc2)cc1Nc1nc(-c2cccnc2)cs1 [Masitinib]; conditions: top dose 20 µM
Protocol: as §1

BX-912 = compound: O=C(Nc1cccc(Nc2ncc(Br)c(NCCc3cnc[nH]3)n2)c1)N1CCCC1 [BX-912]; conditions: top dose 10.24 µM; top dose inferred
Protocol: as §1

OSI-930 = compound: O=C(Nc1ccc(OC(F)(F)F)cc1)c1sccc1NCc1ccnc2ccccc12 [OSI-930]; conditions: top dose 10.24 µM
Protocol: as §1

NSC-87877 = compound: O=S(=O)(O)c1ccc2cc(N=Nc3cc(S(=O)(=O)O)c4cccnc4c3O)ccc2c1 [NSC-87877]; conditions: top dose 16 µM; top dose inferred
Protocol: as §1

LAQ824 = compound: O=C(/C=C/c1ccc(CN(CCO)CCc2c[nH]c3ccccc23)cc1)NO [LAQ824]; conditions: top dose 1.024 µM; top dose inferred
Protocol: as §1

VNLG/124 = compound: CCCC(=O)OCc1ccc(OC(=O)/C=C(C)/C=C/C=C(C)/C=C/C2=C(C)CCCC2(C)C)cc1 [VNLG/124]; conditions: top dose 5.12 µM; top dose inferred
Protocol: as §1

Bleomycin = compound: Cc1c(N)nc([C@H](CC(N)=O)NC[C@H](N)C(N)=O)nc1C(=O)N[C@H](C(=O)N[C@H](C)[C@@H](O)[C@H](C)C(=O)N[C@H](C(=O)NCCc1nc(-c2nc(C(=O)NCCC[S+](C)C)cs2)cs1)[C@@H](C)O)[C@@H](OC1OC(CO)C(O)C(O)C1OC1OC(CO)C(O)C(OC(N)=O)C1O)c1cnc[nH]1 [Bleomycin]
Protocol: as §1

Elesclomol = compound: CN(NC(=O)CC(=O)NN(C)C(=S)c1ccccc1)C(=S)c1ccccc1 [Elesclomol]; conditions: top dose 0.2 µM; top dose inferred
Protocol: as §1

[1] = top dose 50 µM, screen: GDSC drug entry 1378, top dose inferred
[2] = top dose 64 µM, screen: GDSC drug entry 190

Cell Line	AUC (Tamoxifen)	IC50 (Tamoxifen) [µM]	AUC (Masitinib)	IC50 (Masitinib) [µM]	AUC (BX-912)	IC50 (BX-912) [µM]	AUC (OSI-930)	IC50 (OSI-930) [µM]	AUC (NSC-87877)	IC50 (NSC-87877) [µM]	AUC (LAQ824)	IC50 (LAQ824) [µM]	AUC (VNLG/124)	IC50 (VNLG/124) [µM]	AUC (Bleomycin; [1])	IC50 (Bleomycin; [1]) [µM]	AUC (Bleomycin; [2])	IC50 (Bleomycin; [2]) [µM]	AUC (Elesclomol)	IC50 (Elesclomol) [µM]
SW1088 (glioma, adherent)	0.908	> 5	0.923	> 20	0.919	> 10.2	0.949	> 10.2	0.979	> 16	0.783	0.574	0.938	> 5.12	0.668	10.6	0.895	> 64		
SW1463 (large intestine, adherent)	0.975	> 5	0.905	> 20	0.974	> 10.2	0.972	> 10.2	0.953	> 16	0.695	0.339	0.963	> 5.12	0.938	> 50	0.637	12.5		
TC-YIK (cervix, suspension)	0.974	> 5													0.83	25.8			0.808	0.0875
TCCSUP (bladder, adherent)	0.982	> 5	0.904	> 20	0.974	> 10.2	0.985	> 10.2	0.982	> 16	0.486	0.0582	0.984	> 5.12	0.669	9.93	0.693	15.1		
TGBC24TKB (biliary tract, adherent)	0.989	> 5	0.93	> 20	0.973	> 10.2	0.977	> 10.2	0.974	> 16	0.378	0.0303	0.987	> 5.12	0.889	> 50	0.87	53.3		
U031 (kidney, adherent)	0.983	> 5	0.947	> 20	0.891	> 10.2	0.976	> 10.2	0.846	12.3	0.466	0.0514	0.979	> 5.12	0.052	< 0.195	0.254	0.765		
U-266 (myeloma, semi-adherent)	0.93	> 5													0.896	> 50			0.563	0.0197
VM-CUB-1 (bladder, adherent)	0.984	> 5	0.968	> 20	0.989	> 10.2	0.983	> 10.2	0.988	> 16	0.585	0.109	0.987	> 5.12	0.137	0.239	0.518	4.46		
